The campaign covered roughly 310,000 compounds. About 2,200 (0.71%) showed an effect of 50% or more. Effects have a minus sign here. This is one part of the list.
biological target: human ether-à-go-go-related gene (hERG) potassium channel (human, UniProt Q12809); assay: primary screen, population patch clamp on CHO cells stably expressing hERG
Sequence (Q12809 whole entry, looked up): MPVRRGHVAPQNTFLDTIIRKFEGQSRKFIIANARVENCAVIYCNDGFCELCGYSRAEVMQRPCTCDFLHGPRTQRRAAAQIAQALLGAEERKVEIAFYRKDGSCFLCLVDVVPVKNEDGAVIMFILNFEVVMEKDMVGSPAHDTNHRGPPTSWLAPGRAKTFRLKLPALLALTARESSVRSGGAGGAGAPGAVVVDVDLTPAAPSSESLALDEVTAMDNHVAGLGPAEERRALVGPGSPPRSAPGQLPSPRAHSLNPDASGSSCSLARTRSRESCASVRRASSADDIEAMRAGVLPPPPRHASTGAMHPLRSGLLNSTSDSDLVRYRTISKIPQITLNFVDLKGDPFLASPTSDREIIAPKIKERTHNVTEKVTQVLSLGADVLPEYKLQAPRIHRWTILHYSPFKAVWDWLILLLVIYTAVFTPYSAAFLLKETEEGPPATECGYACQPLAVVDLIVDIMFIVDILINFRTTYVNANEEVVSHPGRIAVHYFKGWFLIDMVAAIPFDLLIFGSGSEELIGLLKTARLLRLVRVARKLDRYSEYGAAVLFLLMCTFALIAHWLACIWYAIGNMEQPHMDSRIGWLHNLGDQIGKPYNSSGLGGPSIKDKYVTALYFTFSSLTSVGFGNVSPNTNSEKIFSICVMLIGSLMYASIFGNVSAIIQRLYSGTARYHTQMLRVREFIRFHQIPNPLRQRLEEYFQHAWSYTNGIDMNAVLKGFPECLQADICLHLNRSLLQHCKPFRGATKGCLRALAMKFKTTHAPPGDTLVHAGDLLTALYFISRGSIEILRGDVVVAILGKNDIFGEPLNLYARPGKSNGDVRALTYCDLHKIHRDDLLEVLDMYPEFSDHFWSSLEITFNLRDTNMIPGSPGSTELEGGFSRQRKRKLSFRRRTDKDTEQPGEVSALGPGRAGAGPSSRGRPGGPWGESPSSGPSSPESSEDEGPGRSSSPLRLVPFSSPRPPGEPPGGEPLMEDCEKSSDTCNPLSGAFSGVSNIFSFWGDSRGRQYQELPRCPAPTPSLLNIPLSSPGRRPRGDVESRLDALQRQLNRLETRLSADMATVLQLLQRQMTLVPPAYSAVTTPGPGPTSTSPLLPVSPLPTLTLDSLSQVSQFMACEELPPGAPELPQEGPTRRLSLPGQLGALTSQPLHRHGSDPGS

SMILES | hERG current change (%, negative = inhibition) at 1uM
Cc1cccc(C(=O)/C=C2/c3ccccc3CC(C)(C)N2C)c1 | -5.71%
Cc1cc(NC(=O)NN2CCOCC2)nn1-c1c(Cl)cccc1Cl | 13.6%
CC(C)C(=O)N1CCN(c2cc(N3CCN(C)CC3)c(F)cc2[N+](=O)[O-])CC1 | 0.106%
CCc1ccc(NC(=S)NC2CC3CCCC(C2)N3Cc2cccs2)cc1 (stereo not shown) | 9.83%
COc1ccc(OC)c(C(=O)CSc2nc3ccccc3n2CC(=O)NC(C)(C)C)c1 | 10.2%
O=c1c2ccccc2cnn1Cc1n[nH]c(=S)n1C1CC2CCC1C2 (stereo not shown) | 11.5%
O=C(NC1CCCCC1)c1cccc(Cn2cc(Cl)cn2)c1 | 7.71%
CC1(c2nnc(-c3ccccc3)o2)CC(c2cccnc2)=NO1 (stereo not shown) | 13.3%
CC(Sc1n[nH]c(N)n1)C(=O)Nc1ccccc1-c1ccccc1 (stereo not shown) | 13.1%
CC1(C)CC(=O)C=C(c2ccc3ccccc3c2)C1 | 15.7%
CC(C)C[C@H]1CN=C(N(C)C)N1CC1CCCC1 | 11.1%
O=C(c1ccc([N+](=O)[O-])cc1)N1CCc2ccccc21 | 7.69%
CCCOC(=O)CCCC[C@H]1SC[C@@H](NC(=O)OC)[C@H]1NC(=O)OC | -1.35%
Cc1cccc(CCN2C(Nc3ccccc3)=NC[C@@H]2CC(C)C)c1 | -46.8%
COc1ccc(Cc2nc(-c3ccc(NC(=O)c4cccnc4)cc3)no2)cc1 | 16.8%
CC12CCC(=O)N1C(C(=O)Nc1cc(Cl)ccc1N1CCOCC1)CS2 (stereo not shown) | -5.07%
Cc1csc(NC(=O)c2ccccc2[N+](=O)[O-])n1 | 11.5%
COc1ccccc1OCCCCN1CCCCC1 | 8.59%
O=C(O)CCC(=O)c1ccc2c(c1)OCCCO2 | 7.12%
Cc1ccc(N2CN=C(c3ccccc3)NC2=S)cc1 | 4.49%
Cn1cnnc1SC(C(=O)Nc1cc(Cl)cc(Cl)c1)c1ccccc1 (stereo not shown) | 20.4%
CN(Cc1ccc(F)cc1)C(=O)c1cc(COc2ccc(-n3cncn3)cc2)on1 | -18.4%
COc1ccc(COC(=O)NNC(=O)c2ccccc2Cl)cc1 | 5.34%

SMILES | hERG current change (%, negative = inhibition) at 1uM
Cc1ccc(C)c(N2CCN(CCCNC(=O)Cn3cc4c(n3)CCC(C)C4)CC2)c1 (stereo not shown) | -45.1%
COc1cccc(CNCc2ccc(SC)cc2)c1OC | -16.2%
CCc1noc(C)c1C(=O)NNC(=O)COc1ccc(C)c(C)c1 | 5.82%
O=C(NCCNc1ccc([N+](=O)[O-])cc1)c1ccccc1F | 9.3%
CCOc1c(C)cc(S(=O)(=O)NCc2ccccn2)c(C)c1C | 14.6%
O=C(N/N=C/c1ccco1)c1[nH]ncc1Br | 11.8%
CCOC(=O)c1ccc(NC(=S)NC2CC(C)(C)NC(C)(C)C2)cc1 | 3.25%
COc1cc(/C=C/C2=CC(C)(C)NC(=S)N2)cc(OC)c1OC | 8.95%
CCc1ccccc1N1CC(C(=O)Nc2cc(S(=O)(=O)N3CCCC3)ccc2Cl)CC1=O (stereo not shown) | 1.31%
COCCCNC(=O)C(=O)N/N=C/c1ccc(OCC(=O)Nc2cccc(Cl)c2C)c(OC)c1 | 8.72%
COc1ccccc1N1Cc2ccc(OC)c(OC)c2C1=O | 9.06%
O=C(Nc1ccon1)c1ccc(S(=O)(=O)N2CCOCC2)cc1 | 24.2%
Cc1ccccc1N1C(=O)CC(Nc2ccc3c(c2)OCO3)C1=O (stereo not shown) | 7.6%
CC(c1ccc(Br)cc1)N1CC23C=CC(O2)C(C(=O)O)C3C1=O (stereo not shown) | 4.18%
COC(=O)c1cc(S(=O)(=O)Nc2cc(S(=O)(=O)N(C)C)ccc2C)oc1C | 6.43%
CCOC(=O)C1=C(C)N(CCCC(=O)O)C(=O)NC1c1ccc(Br)cc1 (stereo not shown) | 2.78%
Cc1noc(C)c1COC(=O)c1cccnc1SCC(=O)Nc1ccc2c(c1)OCO2 | 8.42%
CC1CCN(C(=O)C2CCC(=O)N(Cc3ccc(Cl)cc3)C2)CC1 (stereo not shown) | 8.53%
Cc1ccc(C(=O)NNC(=S)NC(=O)COc2ccccc2)cc1 | 11.2%
CCOc1c(C(=O)CC)cc2c(C)cc(=O)oc2c1C | -9.82%
CC(C)CC1NC(=O)N(CC(=O)Nc2cc(F)ccc2F)C1=O (stereo not shown) | 19.4%
CC(C)C[C@H](NC(=O)[C@H](Cc1ccccc1)n1c(=O)[nH]c2ccccc2c1=O)C(=O)N1CCC[C@@H]1C(=O)O | 5.46%
COc1ccccc1OCCC(=O)OCC(=O)Nc1cccc(Br)c1 | -3.95%

SMILES | hERG current change (%, negative = inhibition) at 1uM
OC1/C(=C/c2ccc(C(F)(F)F)cc2)N2CCC1CC2 (stereo not shown) | 17.8%
O=C1C2CCN(CC2)C12CC2c1ccc(C(F)(F)F)cc1 (stereo not shown) | 15.9%
Cc1nn(-c2ccccn2)c(N)c1N=O | 10.3%
Cc1ccc(C)c(NC(=O)N2CCc3ccccc3C2)c1 | 11.6%
CCS(=O)(=O)n1nc(-c2ccc(C)cc2)nc1N | 5.02%
O=[N+]([O-])c1cccc(/C=N/Nc2cc(N3CCOCC3)ncn2)c1 | 8.22%
COc1ccc(S(=O)(=O)N2CCOCC2)cc1NC(=O)CN1CCCCCC1 | 7%
CCCOC(c1ccccc1)(c1ccc(C(F)(F)F)cc1)C(Oc1nc(C)cc(C)n1)C(=O)O (stereo not shown) | 17.2%
CCCCc1c(C)nc2ccc(C)cc2c1SCCC(=O)O | 0.904%
Cl.N=c1sccn1CC(=O)NCCc1ccc(Cl)cc1 | 2.49%
CCn1c(SCC(=O)Nc2ccc(N3CCOCC3)cc2)nnc1-c1ccncc1 | 27.3%
CCc1ccc(-c2ccc3nnc(SC)n3n2)cc1 | 1.82%
COc1ccc(S(=O)(=O)N2CC(O)CC2C(=O)Nc2cccnc2)cc1 (stereo not shown) | 11%
C/C(=C\c1ccc(C(=O)O)cc1)c1ccc2c(c1)C(C)(C)CCC2(C)C | 15%
Cc1ccc(CNC(=O)c2cc(C3CC3)nc3c2cnn3C(C)C)cc1 | 5.49%
C/C(=N\O)C(C)(C)Nc1ccc(Br)cc1 | 16.5%
COC(=O)COc1ccc2c(=O)c(-c3ccccc3OC)coc2c1 | 17.8%
Cc1cc(C)c(S(N)(=O)=O)c(C)c1-n1cnnn1 | 8.32%
O=C(O)CCCNC(=O)CCn1nnc2ccccc2c1=O | 8.48%
COc1ccc(Cl)cc1Nc1nc(C)cc(C)c1C(N)=O | 13.8%
COc1ccc(OCC(=O)Nc2c(C(=O)N(CCN(C)C)Cc3ccco3)oc3ccccc23)cc1 | -82.2%
Cc1occc1C(=O)NC(C)c1ccc2c(c1)OCO2 (stereo not shown) | -3.36%
CC(NS(=O)(=O)c1ccc2c(c1)C(C)(C)C(=O)N2C)c1ccccc1 (stereo not shown) | 0.803%

SMILES | hERG current change (%, negative = inhibition) at 1uM
CC(C)(C)C(=O)CSc1ncnc2c1cnn2-c1ccccc1 | 0.676%
O=C(NCc1ccncc1)Nc1cccc(Cl)c1 | -1.92%
CCOCCCn1c(=S)[nH]c2cc(C(=O)NCCN(CC)CC)ccc2c1=O | -22.2%
COC(=O)C(C)Sc1nnc(Cc2cc(=O)[nH]c(=O)[nH]2)n1-c1cccc(OC)c1 (stereo not shown) | 9.69%
CC(=O)c1cccc(N(C(=O)Cn2nnc3ccccc32)C(C(=O)NCC2CCCO2)c2ccc(N3CCOCC3)cc2)c1 (stereo not shown) | 8.15%
CC(O)(CC(=O)O)CC(=O)O | 17.5%
CC(=O)c1ccc(NS(=O)(=O)c2cc3c(cc2C)N(C(C)=O)CCO3)cc1 | 17.5%
COc1ccc(C(=O)COC(=O)c2ccccc2NS(=O)(=O)c2ccc(O)c([N+](=O)[O-])c2)cc1 | 6.58%
O=C(Nc1ccccc1)OC1CCC2CC1CCC2OC(=O)Nc1ccccc1 (stereo not shown) | 3.1%
Oc1c(Cl)cc(Cl)cc1C=Nc1ccc2c(c1)OCCO2 | 16%
Nc1cccc(Nc2ccccc2)c1 | 16.3%
COc1ccc(NC(=O)C2(c3ccc(NC(=O)c4ccc(C)cc4)cc3)CCCC2)cc1 | 9.7%
CC(=O)N1c2ccc(S(=O)(=O)N3CCC(C(=O)N4CCC(C)CC4)CC3)cc2CC1C (stereo not shown) | 11.9%
Cn1c(N=Nc2ccccc2)nc2ccccc21 | 9.02%
Cc1ccc(C)c(OCCCN2CCNCC2)c1.Cl | 21%
Cc1cc(=O)c2ccc3ccccc3c2[nH]1 | 9.29%
COn1c(-c2ccc(C)cc2)nc2ncccc21 | 16.5%
O=C(COC(=O)c1cncc(Br)c1)Nc1nnc(-c2ccccc2)o1 | 11.3%
CC(C)(C)OC(=O)N1CCN(C(=O)[C@H](Cc2ccc(O)cc2)n2cc(CCO)nn2)CC1 | 12.7%
Cc1ccc(NC(=O)C2CCCN(S(=O)(=O)c3ccc4[nH]c(=O)ccc4c3)C2)nc1 (stereo not shown) | 6.21%
COc1ccc(C2CC(c3ccccc3)n3nnnc3N2)cc1 (stereo not shown) | 15.1%
Cc1ccc(Cn2c(=N)n(CC(O)COc3ccccc3)c3ccccc32)cc1.Cl (stereo not shown) | -36.1%
